T1: mouse B7-2 expressed on cells (CHO cells; mouse leukocytes) (mouse, UniProt P42082 24-309)
T1 construct: whole, on cells; also called mB7-2
T1 sequence (looked up): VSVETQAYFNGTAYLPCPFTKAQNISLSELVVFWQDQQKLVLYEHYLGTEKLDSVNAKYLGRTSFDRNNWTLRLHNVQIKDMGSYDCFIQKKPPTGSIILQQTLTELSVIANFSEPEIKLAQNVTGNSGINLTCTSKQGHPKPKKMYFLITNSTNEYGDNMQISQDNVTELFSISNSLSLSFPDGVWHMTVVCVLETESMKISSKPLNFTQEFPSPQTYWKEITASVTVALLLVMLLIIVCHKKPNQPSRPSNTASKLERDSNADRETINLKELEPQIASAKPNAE

T2: human B7-2-Fc (human, UniProt P42081 24-245, limits assumed)
T2 construct: Bought; also called hB7-2-Fc; not shown: Fc part; not described
T2 sequence (looked up): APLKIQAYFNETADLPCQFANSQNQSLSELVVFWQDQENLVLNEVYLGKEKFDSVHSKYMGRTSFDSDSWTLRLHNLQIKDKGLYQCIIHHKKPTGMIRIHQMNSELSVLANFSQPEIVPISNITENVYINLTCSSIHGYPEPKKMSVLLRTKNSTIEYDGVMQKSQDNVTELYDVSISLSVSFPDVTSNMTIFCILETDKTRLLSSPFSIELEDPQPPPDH

T3: GFP-tagged human B7-1 on CHO cells (human, UniProt P33681 35-288)
T3 construct: whole, on cells; also called B7-1-GFP; not shown: C-GFPSpark tag
T3 sequence (looked up): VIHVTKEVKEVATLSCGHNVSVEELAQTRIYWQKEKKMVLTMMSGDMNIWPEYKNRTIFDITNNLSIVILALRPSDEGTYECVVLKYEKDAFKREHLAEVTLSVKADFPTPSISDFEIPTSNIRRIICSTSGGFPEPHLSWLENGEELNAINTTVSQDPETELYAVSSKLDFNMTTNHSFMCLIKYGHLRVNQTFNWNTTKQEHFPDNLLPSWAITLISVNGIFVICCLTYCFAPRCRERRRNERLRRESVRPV

T4: GFP-tagged human B7-2 on CHO cells (human, UniProt P42081 24-329)
T4 construct: whole, on cells; also called B7-2-GFP; hB7-2-GFP-CHO; not shown: C-GFPSpark tag
T4 sequence (looked up): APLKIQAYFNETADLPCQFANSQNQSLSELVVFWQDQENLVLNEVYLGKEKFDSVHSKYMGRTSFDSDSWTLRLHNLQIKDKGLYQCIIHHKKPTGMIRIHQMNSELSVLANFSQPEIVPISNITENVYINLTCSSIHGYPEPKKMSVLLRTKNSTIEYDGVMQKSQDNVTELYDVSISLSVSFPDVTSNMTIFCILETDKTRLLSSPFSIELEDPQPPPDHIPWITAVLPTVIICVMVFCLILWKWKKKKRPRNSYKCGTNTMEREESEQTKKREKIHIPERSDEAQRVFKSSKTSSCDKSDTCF

B1: human CTLA-4-Fc (Fc fusion)
chain: not shown
notes: Bought; also called hCTLA-4-Ig; biotinylated CTLA-4-Fc; not shown: Fc part; not described
B2: OFP-tagged human CTLA-4 Y201V on HEK293T cells (receptor)
chain: not shown
notes: whole, on cells; also called CTLA-4^Y201V-OFP; hCTLA-4^Y201V-OFP-293T; not shown: OFP tag

Experiments:
[1] = biological target: T1, mouse B7-2 expressed on cells (CHO …); assay: flow cytometry, dissociation time course: biotinylated CTLA-4-Fc 200 ng/test on CHO cells expressing mB7-2, washed, kept in DPBS, PE-streptavidin
human B7-2-Fc = biological target: T2, human B7-2-Fc; assay: ELISA: hB7-2-Fc coated, biotinylated hCTLA-4-Fc varied, with 100 µg/ml hIgG-Fc
[2] = biological target: T3, GFP-tagged human B7-1 on CHO cells; assay: flow cytometry, cell-cell interaction: B7-1-GFP CHO cells and hCTLA-4 Y201V-OFP 293T cells co-incubated at 4 °C for 2 h [f]
[3] = biological target: T4, GFP-tagged human B7-2 on CHO cells; assay: flow cytometry, cell-cell interaction: B7-2-GFP CHO cells and hCTLA-4 Y201V-OFP 293T cells co-incubated at 4 °C for 2 h [h]

Binder | binding result [1] | EC50 (read off the curve) (human B7-2-Fc) | binding result [2] | binding result [3]
B1 | binds | ~0.02 µg/mL |  | 
B2 |  |  | binds | binds
